Measurements as given in the supplement of paper PMC3334620.
Over roughly 33,000 sequences, “E-score (-0.5 to 0.5)” has its median near -0.041; the highest 2% begin near 0.37. The list shows a part of the results.

These sequences were tested against T1, Ecm22 (UniProt Q05958) (assay: PBM E-score (8-mer binding enrichment) (E-score (-0.5 to 0.5)); higher = stronger / more preferred TF binding; most listed sequences are background and not binding sites). Conditions: protein concentration: 200 nM; construct: GST-full length.
T1 sequence: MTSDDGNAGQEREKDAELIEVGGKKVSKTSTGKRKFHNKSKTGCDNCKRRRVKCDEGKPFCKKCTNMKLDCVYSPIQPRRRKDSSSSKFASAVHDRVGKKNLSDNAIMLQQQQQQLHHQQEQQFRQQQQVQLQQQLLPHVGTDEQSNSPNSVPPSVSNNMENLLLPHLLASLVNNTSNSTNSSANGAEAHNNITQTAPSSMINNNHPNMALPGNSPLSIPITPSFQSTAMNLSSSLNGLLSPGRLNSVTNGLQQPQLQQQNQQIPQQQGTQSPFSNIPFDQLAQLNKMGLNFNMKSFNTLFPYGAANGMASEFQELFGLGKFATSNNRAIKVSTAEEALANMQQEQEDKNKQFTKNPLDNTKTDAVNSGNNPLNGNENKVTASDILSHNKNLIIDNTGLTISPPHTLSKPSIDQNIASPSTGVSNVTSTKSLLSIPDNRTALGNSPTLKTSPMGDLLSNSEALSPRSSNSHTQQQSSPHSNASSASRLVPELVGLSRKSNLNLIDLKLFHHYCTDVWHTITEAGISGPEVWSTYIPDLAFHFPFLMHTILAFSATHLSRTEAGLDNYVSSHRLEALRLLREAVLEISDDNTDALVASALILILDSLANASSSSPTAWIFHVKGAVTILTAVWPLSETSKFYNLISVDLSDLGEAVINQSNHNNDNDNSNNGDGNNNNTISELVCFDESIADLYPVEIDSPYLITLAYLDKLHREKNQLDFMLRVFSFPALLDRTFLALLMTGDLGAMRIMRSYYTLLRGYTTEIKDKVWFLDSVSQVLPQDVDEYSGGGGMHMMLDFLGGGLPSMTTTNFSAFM
Procedure, shortened: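 Masliner-normalised scans of fluorescent anti-GST signal were the basis for scoring. That signal came from GST-tagged yeast transcription factors applied at about 100-200 nM to double-stranded universal all-10-mer Agilent arrays on fresh or once-stripped slides. Each ungapped eight-base word, pooled with its reverse complement, received an E-score from the Universal PBM Analysis Suite.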

Sequence	PBM E-score
GATCCTCC	-0.123
ACTCTAAT	-0.272
ACTCCAAC	-0.175
CACGTGTC	-0.132
GGGCCCAA	-0.194
CGGGGGGC	-0.00329
GGGATTGA	-0.213
GTGTTTCA	-0.0721
CTCGGCGA	0.185
AAAGGAAA	0.141
ATGTAACA	-0.0858
AGGAAGGC	-0.00096
GCTATAAC	-0.0926
CTTCAGAA	-0.108
CCCTACGC	-0.174
CCCCACCC	0.0352
GCCTGAAC	-0.198
GGGCCACC	-0.191
ATCAGCCC	-0.305
CCATATTC	0.0734
CAATGTCC	-0.124
ACCTTCGG	0.188
AAAAACCT	-0.093
CTGCCCGA	-0.101
AAATCGGC	0.0214

Sequence	PBM E-score
AGCAACCA	-0.178
CGGTGACC	-0.166
AGTATTAG	-0.0209
ATTGCCTG	-0.138
GAACATTA	-0.0512
AGGGCCTG	-0.273
CCATCACA	-0.254
AACTGATG	-0.063
CACGGATG	-0.103
AAAGGGTA	-0.0295
AAGCGCCC	0.0267
CAAGGGGA	-0.15
TCAAATCA	-0.277
CGAGTCTA	-0.0505
CGGACAGC	-0.0574
CCGAGAGA	0.102
ACGCGCGA	0.217
AGTTATAT	0.0387
AACTCATA	-0.152
GTACGAAA	0.467
GAACTATA	0.0872
ACTCTAGG	-0.187
ACTCACCT	-0.149
AAAGAGCA	-0.0945
CGGGACAG	0.225

Sequence	PBM E-score
AGCGCCAA	-0.342
GAGTTTCC	0.0316
GTTGCTCA	0.108
ACAGAGTC	0.017
GTTACCAA	0.149
AATGGCGC	0.0313
AAGGTGGA	-0.0387
CGGTAAAC	0.206
ATGCCAAA	-0.14
CGATTACA	0.198
AGACATCG	0.0391
ATCCTGAA	0.121
CACAGCAA	0.146
ACTGCTAT	0.0499
CGACGTAA	0.244
GTCCCCGA	-0.198
CGACTCAA	0.163
ACCGGTAT	-0.146
GCGCAAGC	0.0527
ACGCTTAA	-0.0354
ACACCAGC	-0.0747
TAGACTCA	-0.0381
ACTCGGTC	0.229
TACCATCA	-0.0824
AGGGGACC	-0.184

Sequence	PBM E-score
CGCTTTGA	0.00616
ATAATAAA	0.0541
AACTCGCG	0.232
ACTAGTCC	-0.272
ATTAGTTG	-0.0136
GCCTACTA	-0.0227
CTAATACC	-0.0714
GGGTAAGA	-0.0686
TCACCCGA	0.119
AAGAGCGG	0.0698
AGAGCAAT	-0.0859
CACCTTTC	-0.0968
GACATTGC	-0.263
ATATTTAA	0.0866
CGGTACTC	0.0418
ATGGTCCC	-0.268
GCATAAAC	0.175
CGGGCCAA	-0.282
CACTAAGA	-0.0885
AACATAGT	0.0473
ATAGCTCA	-0.149
ATCCTGTC	0.168
TCAGACGA	0.169
AAAAAGAC	-0.218
AGCTGATA	0.0205

Sequence	PBM E-score
CTAAGTAC	0.153
AAGAGGAC	-0.187
CACATCAC	-0.15
CGGTGTCC	-0.0125
ACTTTTTA	-0.153
TGCCCTAA	-0.175
AAGATAAC	-0.0598
ACGTAGCT	0.202
GCAGCGCC	-0.0645
ATCGTAAA	0.436
GGCGTGTA	-0.148
CTGGGTGA	-0.204
GCAACGCA	-0.0871
CTACGTGC	-0.0502
ATTTTATG	0.0774
AGACATAA	-0.0391
GCAGAAGA	-0.0658
CCAGTACG	0.258
GTCTTTAA	-0.114
CCGTATAG	0.465
ACATAGCA	-0.131
ACTGCTCG	0.12
CTATTTAA	-0.0533
TAGGAATA	-0.149
ATCGCGGG	0.169

Sequence	PBM E-score
AGTCTGAG	-0.0593
AGTTAAGG	-0.191
GCGGGGAA	0.0768
AGAAAAAG	-0.24
CTGCCAAG	-0.034
GAAGGCCC	0.0164
CCTTCCCG	-0.043
AGTCAGGA	-0.184
TCGAGAAA	0.0202
AGGGAAGC	-0.105
TCCTAGCA	-0.255
CCGAATGC	0.0774
TTCAAGAA	0.0932
GGTTGTAA	-0.127
CGGGCCGA	-0.134
CGTTTGTC	0.298
GATTGCCC	-0.0259
CTAACCAC	-0.0169
ACTGCTTC	-0.0281
AGGACTAG	-0.166
GATGCACC	-0.0687
CACTCTGC	-0.0119
CGGGGGCC	-0.00222
GGTCGGTA	0.284
AGACTGAT	-0.202

Sequence	PBM E-score
CGTCAAGC	-0.0738
GTCCGTGA	0.0485
AATGTTCA	-0.116
CAAGAAGG	-0.165
GTGGACCA	-0.177
CGTCGCGA	0.297
ACCTGGCT	-0.059
AACATGAC	-0.134
GCCATGGA	-0.181
GAGTACGA	0.426
TCGGCTCA	-0.0533
GCAGTATA	0.00098
AGTCCATC	0.0216
TATCGGAA	0.157
GTGCCCTA	-0.147
GTCGCTTA	0.37
CTAGCGAC	-0.0257
AATCCCAG	-0.152
CAGACTAC	0.028
CTTAATTA	-0.14
ATAGACTC	-0.0954
CAACCTTA	-0.236
